# Measurements: patent publication US11230543B2, “Biaryl monobactam compounds and methods of use thereof for the treatment of bacterial infections” (priority 2015, dated 2022)
# Counter-ions that a name gives are not always drawn. The name of at least one read-out is uncertain.
# Columns and labels:
# [1] = system: Escherichia coli expressing NDM-1 (CLB30016); assay: Antibiotic activity: growth inhibitory concentration (OD600), Escherichia coli CLB30016; assay type: cell-based; conditions: lowest concentration inhibiting 95% of bacterial growth; in the presence of β lactamase inhibitor Relebactam 4 μg/mL; 35±2° C. for 22 hours; tested range 100 μM to 0.098 μM
# Procedure, shortened: (§1)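 Growth inhibition by OD600 after 22 hours incubation at 35±2° C, reported as lowest concentration inhibiting 95% of growth (MITC95). Final compound range 100 μM to 0.098 μM, always combined with β-lactamase inhibitor relebactam (4 μg/mL final); inoculum ~2×10^5 CFU/mL in cation-adjusted Mueller-Hinton II broth.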
# [2] = system: Acinetobacter baumannii expressing TEM-1, AmpC, and Oxa-24/40 (CL6188); assay: Antibiotic activity: growth inhibitory concentration (OD600), Acinetobacter baumannii CL6188; assay type: cell-based; conditions: lowest concentration inhibiting 95% of bacterial growth; in the presence of β lactamase inhibitor Relebactam 4 μg/mL; 35±2° C. for 22 hours; tested range 100 μM to 0.098 μM
# Procedure, shortened: as §1
compound,measurement,setting,value
"C[n+]1cc(-c2ccc(OCC(O/N=C(\C(=O)N[C@@H]3C(=O)N(OS(=O)(=O)O)C3(C)C)c3csc(N)n3)P(=O)(O)O)cc2)cn1CCCN (stereo partly drawn) [Example 40, (3S)-3-((Z)-2-((2-(4-(1-(3-aminopropyl)-2-methyl-1H-pyrazol-2-ium-4-yl)phenoxy)-1-phosphonoethoxy)imino)-2-(2-aminothiazol-4-yl)acetamido)-2,2-dimethyl-4-oxoazetidin-1-yl sulfate]",EC_CLB30016 MITC95,[1],50 µM
same,AB_CL6188 MITC95,[2],50 µM
"CC1[C@H](NC(=O)/C(=N\O[C@@H](COc2ccc(-c3cnn(CCCN)c3)cc2)C(=O)O)c2csc(N)n2)C(=O)N1S(=O)(=O)O (stereo in doubt) [Example 8, (S)-3-(4-(1-(3-aminopropyl)-1H-pyrazol-4-yl)phenoxy)-2-((((Z)-1-(2-aminothiazol-4-yl)-2-(((2R,3S)-2-methyl-4-oxo-1-sulfoazetidin-3-yl)amino)-2-oxoethylidene)amino)oxy)propanoic acid]",EC_CLB30016 MITC95,[1],100 µM
same,AB_CL6188 MITC95,[2],100 µM
"C[n+]1cc(-c2ccc(OC[C@H](O/N=C(\C(=O)N[C@@H]3C(=O)N(OS(=O)(=O)[O-])C3(C)C)c3nsc(N)n3)C(=O)O)cc2)cn1CCCN [Example 12, (S)-3-((Z)-2-(5-Amino-1,2,4-thiadiazol-3-yl)-2-(((S)-2-(4-(1-(3-aminopropyl)-2-methyl-1H-pyrazol-2-ium-4-yl)phenoxy)-1-carboxyethoxy)imino)acetamido)-2,2-dimethyl-4-oxoazetidin-1-yl sulfate]",EC_CLB30016 MITC95,[1],100 µM
same,AB_CL6188 MITC95,[2],6.25 µM
"CC1(C)[C@H](NC(=O)/C(=N\O[C@@H](COc2ccc(-n3cc(CCCN)[n+](CC4(F)CNC4)c3)nc2)C(=O)O)c2csc(N)n2)C(=O)N1OS(=O)(=O)[O-] [Example 124, (S)-3-((Z)-2-(((S)-2-((6-(4-(3-aminopropyl)-3-((3-fluoroazetidin-3-yl)methyl)-1H-imidazol-3-ium-1-yl)pyridin-3-yl)oxy)-1-carboxyethoxy)imino)-2-(2-aminothiazol-4-yl)acetamido)-2,2-dimethyl-4-oxoazetidin-1-yl sulfate]",EC_CLB30016 MITC95,[1],12.5 µM
same,AB_CL6188 MITC95,[2],12.5 µM
"C[n+]1nc(-c2ccc(OC[C@H](O/N=C(\C(=O)N[C@@H]3C(=O)N(OS(=O)(=O)[O-])C3(C)C)c3csc(N)n3)C(=O)O)cc2)ccc1NCCCN [Example 123, (S)-3-((Z)-2-(((S)-2-(4-(6-((3-aminopropyl)amino)-1-methylpyridazin-1-ium-3-yl)phenoxy)-1-carboxyethoxy)imino)-2-(2-aminothiazol-4-yl)acetamido)-2,2-dimethyl-4-oxoazetidin-1-yl sulfate]",EC_CLB30016 MITC95,[1],3.125 µM
same,AB_CL6188 MITC95,[2],3.125 µM
"C[n+]1cc(-c2ccc(CCC(O/N=C(\C(=O)N[C@@H]3C(=O)N(OS(=O)(=O)[O-])C3(C)C)c3csc(N)n3)C(=O)O)cc2)cn1CCCN (single isomer, unassigned) [Example 93]",EC_CLB30016 MITC95,[1],1.563 µM
same,AB_CL6188 MITC95,[2],6.25 µM
"CC1(C)[C@H](NC(=O)/C(=N\O[C@@H](COc2ccc(-c3cn(C[C@@H](O)CN)[n+](CC4CNC4)c3)cc2)C(=O)O)c2csc(N)n2)C(=O)N1OS(=O)(=O)[O-] [Example 52, (S)-3-((Z)-2-(((S)-2-(4-(1-((S)-3-Amino-2-hydroxypropyl)-2-(azetidin-3-ylmethyl)-1H-pyrazol-2-ium-4-yl)phenoxy)-1-carboxyethoxy)imino)-2-(2-aminothiazol-4-yl)acetamido)-2,2-dimethyl-4-oxoazetidin-1-yl sulfate]",EC_CLB30016 MITC95,[1],6.25 µM
same,AB_CL6188 MITC95,[2],1.563 µM
"C[n+]1cc(OC[C@H](O/N=C(\C(=O)N[C@@H]2C(=O)N(OS(=O)(=O)O)C2(C)C)c2csc(N)n2)C(=O)O)ccc1-c1cnn(CCCN)c1.O=C([O-])C(F)(F)F [Example 26, 2-(1-(3-aminopropyl)-1H-pyrazol-4-yl)-5-((S)-2-((((Z)-1-(2-aminothiazol-4-yl)-2-(((S)-2,2-dimethyl-4-oxo-1-(sulfooxy)azetidin-3-yl)amino)-2-oxo-ethylidene)amino)oxy)-2-carboxyethoxy)-1-methylpyridin-1-ium 2,2,2-trifluoroacetate]",EC_CLB30016 MITC95,[1],100 µM
same,AB_CL6188 MITC95,[2],12.5 µM
"CC1(C)[C@H](NC(=O)/C(=N\O[C@@H](COc2ccc(-c3cn(CCCN)c(N)n3)cc2)C(=O)O)c2csc(N)n2)C(=O)N1OS(=O)(=O)O.O=C(O)C(F)(F)F [Example 31, 3-(2-amino-4-(4-((S)-2-((((Z)-1-(2-aminothiazol-4-yl)-2-(((S)-2,2-dimethyl-4-oxo-1-(sulfooxy)azetidin-3-yl)amino)-2-oxoethylidene)amino)oxy)-2-carboxyethoxy)phenyl)-1H-imidazol-1-yl)propan-1-aminium 2,2,2-trifluoroacetate]",EC_CLB30016 MITC95,[1],6.25 µM
same,AB_CL6188 MITC95,[2],3.125 µM
"CC1(C)[C@H](NC(=O)/C(=N\OCCOc2ccc(-c3nc4c([nH]3)CNCC4)cc2)c2csc(N)n2)C(=O)N1OS(=O)(=O)O [Example 86, (S)-3-(2-(2-aminothiazol-4-yl)-2-((2-(4-(4,5,6,7-tetrahydro-3H-imidazo[4,5-c]pyridin-2-yl)phenoxy)ethoxy)imino)acetamido)-2,2-dimethyl-4-oxoazetidin-1-yl hydrogen sulfate]",EC_CLB30016 MITC95,[1],12.5 µM
same,AB_CL6188 MITC95,[2],6.25 µM
"C[n+]1cc(-c2ccc(OC[C@H](O/N=C(/C(=O)N[C@@H]3C(=O)N(OS(=O)(=O)[O-])C3(C)C)c3csc(N)n3)C(=O)O)cc2)cn1CCCNCCN [Example 102, (S)-3-((E)-2-(((S)-2-(4-(1-(3-((2-aminoethyl)amino)propyl)-2-methyl-1H-pyrazol-2-ium-4-yl)phenoxy)-1-carboxyethoxy)imino)-2-(2-aminothiazol-4-yl)acetamido)-2,2-dimethyl-4-oxoazetidin-1-yl sulfate]",EC_CLB30016 MITC95,[1],1.781 µM
same,AB_CL6188 MITC95,[2],1.781 µM
"C[n+]1cc(-c2ccc(OC[C@H](O/N=C(\C(=O)N[C@@H]3C(=O)N(OS(=O)(=O)O)C3(C)C)c3csc(N)n3)C(=O)O)c(F)c2)cn1CCCN [Example 15, 1-(3-aminopropyl)-4-(4-((S)-2-((((Z)-1-(2-aminothiazol-4-yl)-2-(((S)-2,2-dimethyl-4-oxo-1-(sulfooxy)azetidin-3-yl)amino)-2-oxo-ethylidene)amino)oxy)-2-carboxyethoxy)-3-fluorophenyl)-2-methyl-1H-pyrazol-2-ium, TFA salt (1:1)]",EC_CLB30016 MITC95,[1],6.25 µM
same,AB_CL6188 MITC95,[2],3.125 µM
"CC1(C)[C@H](NC(=O)/C(=N\O[C@@H](COc2ccc(-c3cnn(CC[N+]4(C)CCOCC4)c3)cc2)C(=O)O)c2csc(N)n2)C(=O)N1OS(=O)(=O)O.O=C([O-])C(F)(F)F [Example 14, 4-(2-(4-(4-((S)-2-((((Z)-1-(2-aminothiazol-4-yl)-2-(((S)-2,2-dimethyl-4-oxo-1-(sulfooxy)azetidin-3-yl)amino)-2-oxoethylidene)amino)oxy)-2-carboxyethoxy)phenyl)-1H-pyrazol-1-yl)ethyl)-4-methylmorpholin-4-ium 2,2,2-trifluoroacetate]",EC_CLB30016 MITC95,[1],12.5 µM
same,AB_CL6188 MITC95,[2],50 µM
